Changes are numbered by the printed parent chain.
B1: Nanobody 15G11 (VHH)
VHH: EVQLVESGGGLVQAGDSLRVSCAASGRTSSYAMAWFRQAPGKEREFVGTISRTNSRTKYADFVEGRFTISRDNAKSTLSLQMTSLKPEDTAVYYCAAKWTGNSYHDYTWSKVDEYNVWGQGTQVTVSS
B2: Nanobody 281D4 (VHH)
VHH: EVQLVESGGGLVQAGGSLRLSCAASGGTFNNYAMGWFRRAPGKEREFVAAISRSGVRTGVSALYGDSVKDRFTISRDNAKNTLYLQMNKMKPEDTAVYTCAASAIGSGALRRFEYDSSGQGTQVTVSS
notes: Purified Nanobody
B3: Nanobody 15A1 (VHH)
VHH: EVQLVESGGGLVQAGGSLRLSCAASGRTFSRAAMGWFRQAPGKEREFVGCALSSAGSALTADSVKGRFTISRDNAKNMVYLQMNNLKPEDTAVYSCVAGGYCTRAGVYPYWGQGTQVTVSS
notes: also called 15A01
B4: Nanobody 281A5 (VHH)
VHH: B2 VHH with G27R, S52T, T58S, L63I, K89S, M90L, S117Y
notes: Purified Nanobody
B5: Nanobody 281A6 (VHH)
VHH: B2 VHH with A14T
notes: Purified Nanobody
B6: Nanobody 281E10 (VHH)
VHH: B2 VHH with A23K, S52T, T58S, L63I, A79V, K89T, M90L, S117Y
notes: Purified Nanobody
B7: Nanobody 283B6 (VHH)
VHH: EVQLVASGGGLVQAGGSLRLSCAVSGTTFSVATLGWYRQAPGQQRALVADISSGGSTNYADSVRGRFTISRDNAKNLAYLQMNSLKPEDTAVYYCNARTSGWRTRSNYWGQGTQVTVSS
notes: Purified Nanobody
B8: Nanobody 283E2 (VHH)
VHH: B7 VHH with A6E
notes: Purified Nanobody
B9: Nanobody 283F1 (VHH)
VHH: EVQLVESGGGLVQAGGSLRLSCVASVNIFGSIAMAWYRQAPGKQRNLVASISSGGRINYADSRKGRFTISRDNTKNTVHLQMNSLEPEDTAVYYCAAGRIGQRTLTFTPDYWGQGTQVTVSS
notes: Purified Nanobody

Molecular target: T1, human CXCR4 (human, UniProt P61073 1-352)
T1 construct: also called hCXCR4
Assay: competition with 12G5 (competitor, 1 nM), Jurkat cells, flow cytometry

**Q.** Which IC50 does the source give for B1 here?
**A.** Its IC50 is 6.2 nM.

Molecular target: T2, hCXCR4-V196E (human, UniProt P61073 1-352)
T2 construct: whole, on cells
Assay: flow cytometry, transfected HEK293T cells, 10 nM, normalised to 12G5

**Q.** Which “% binding relative to hCXCR4” value does the source give for B2 here?
**A.** The value was 70.5%.

**Q.** How did the “% binding relative to hCXCR4” value turn out when B1 was run?
**A.** Its value is 22.1%.

**Q.** For B3, which “% binding relative to hCXCR4” value is on record?
**A.** The value was 71.3%.

Molecular target: T3, cynomolgus CXCR4 (cynomolgus, UniProt Q28474 1-352)
T3 construct: whole, on cells; also called cyno CXCR4
Assay: as above

**Q.** Which “% binding relative to hCXCR4” value does the source give for B2 here?
**A.** Its value is 97%.

**Q.** How did the “% binding relative to hCXCR4” value turn out when B1 was run?
**A.** Its value is 95.1%.

**Q.** Which “% binding relative to hCXCR4” value does the source give for B3 here?
**A.** The value was 107%.

Molecular target: T1, human CXCR4
Assay: [125I]-SDF-1 displacement, HEK293-CXCR4 membrane extracts, n = 3

**Q.** Which pKi does the source give for B2 here?
**A.** Its pKi is 8.27.

**Q.** With B4 as the binder, how does the pKi read?
**A.** The pKi was 8.12.

**Q.** For B5, which pKi is on record?
**A.** Its pKi is 8.63.

**Q.** Which pKi does the source give for B6 here?
**A.** The pKi was 9.21.

**Q.** With B7 as the binder, how does the pKi read?
**A.** Its pKi is 8.78.

**Q.** With B8 as the binder, how does the pKi read?
**A.** Its pKi is 8.29.

**Q.** How did the pKi turn out when B9 was run?
**A.** Its pKi is 7.93.

Molecular target: T2, hCXCR4-V196E
Assay: flow cytometry, transfected HEK293T cells, 100 nM, normalised to 12G5

**Q.** B2 was tested. Which “% binding relative to hCXCR4” value did it give?
**A.** Its value is 79.5%.

**Q.** How did the “% binding relative to hCXCR4” value turn out when B1 was run?
**A.** Its value is 39.3%.

**Q.** B3 was tested. Which “% binding relative to hCXCR4” value did it give?
**A.** Its value is 77.3%.

Molecular target: T3, cynomolgus CXCR4
Assay: as above

**Q.** With B1 as the binder, how does the “% binding relative to hCXCR4” value read?
**A.** The value was 96.1%.

**Q.** For B3, which “% binding relative to hCXCR4” value is on record?
**A.** The value was 78.9%.

Reference: patent US20180086837A1 (Ablynx, published 2018)
